Assay results: PubChem BioAssay AID2546 (National Center for Advancing Translational Sciences (NCATS), 2010)
In all, about 310,000 compounds went through this assay and about 11,000 (3.5%) were called active. The inconclusive results got no clear call from the source; some entries with a clear call stand among them for comparison. The call rests on the fitted dose curve; in most records, active means well fitted inhibition curve with a large enough effect; inconclusive means small, poorly fitted or top-dose-only effect, or effect the other way; inactive means flat fitted curve, though single readings scatter. No potency is given beside an inconclusive call; the fits are too rough.

Test: VP16 counterscreen qHTS for inhibitors of ROR gamma transcriptional activity;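 further: Gal4-VP16 expression switched on by copper sulfate through the metallothionein promoter; nearly all actives have a fitted effect of over 50% in size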
Details: Drosophila S2 Gal4-VP16 UAS-luciferase, luminescence, 20 h; activity, negative = inhibition: at 53.6 µM (top of the series)
On the % scale 0 is the no-effect control and ±100 the full control effect; potency means the concentration at half of the fitted maximal effect; tags describe the fitted curve by direction and shape.

Row | Compound | Potency | activity, negative = inhibition
1 | Oc1ccccc1-c1cc(-c2cccc(F)c2)n[nH]1 | inconclusive [inhibitor, single point] | –
2 | COc1ccc(CC(=O)Nc2ccc3c(c2)CCC3)cc1OC | inconclusive [inhibitor, single point] | –
3 | COc1ccc(C(C(=O)NC2CCCCC2)N(C(=O)CCl)c2cccc(Cl)c2)cc1 (stereo unspecified) | inconclusive [inhibitor, single point] | –
4 | C/C(=N\NC(=O)COc1ccc(C(C)(C)C)cc1)c1cc2ccccc2o1 | inconclusive [inhibitor, partial curve] | –
5 | COc1cc(C2CC(=O)c3c([nH]c(C(=O)OCCOC(C)C)c3C)C2)cc(OC)c1OC (stereo unspecified) | inconclusive [inhibitor, single point] | –
6 | O=[N+]([O-])c1cc(-c2ccc(C(=S)N3CCOCC3)o2)ccc1Cl | – | inactive: 28.8%
7 | CC(C)n1c(C(O)c2ccc3c(c2)OCO3)nc2ccccc21 (stereo unspecified) | inconclusive [inhibitor, single point] | –
8 | O=C(NCCc1ccccc1)/C(=C/c1ccco1)c1ccccc1 | inconclusive [inhibitor, single point] | –
9 | O=C(NC(=S)Nc1ccccc1[N+](=O)[O-])c1ccccc1 | active: 2 µM | –
10 | Clc1ccc(-n2c(SC/C=C/c3ccccc3)nnc2-c2cccnc2)cc1 | inconclusive [inhibitor, single point] | –
11 | Cc1ccc(N2CC(C(=O)Nc3ccc(N(C)C)cc3)CC2=O)cc1C (stereo unspecified) | inconclusive [inhibitor, single point] | –
12 | Cn1c(-c2ccc(CN3CCCCC3)o2)nc2ccccc21 | inconclusive [inhibitor, single point] | –
13 | O=c1c2ccccc2nc2ccc(NCc3ccco3)nn12 | – | inactive: -11.9%
14 | CCOc1cc(NC(=S)NCCCOC)c(OCC)cc1NC(=O)c1ccco1 | inconclusive [inhibitor, single point] | –
15 | Cc1cc(C(=O)N/N=C/c2ccc(C)s2)n[nH]1 | – | inactive: -9%
16 | O=C(N/N=C/c1ccccn1)c1cc(-c2ccc(Br)cc2)nc2ccccc12 | active: 1.12 µM | –
17 | O=C1C=CC(O)(c2cc(=O)c3c(O)cc(O)cc3o2)C=C1 | active: 2.82 µM | –
18 | O=c1ccc2c(o1)/C(=C/C=C(Cl)Cl)CCC2 | – | inactive: -11.6%
19 | Cc1ccc(S(=O)(=O)/N=C2\C(=O)c3ccccc3C([O-])=C2n2cc[n+](CCC(C)C)c2)cc1 | inconclusive [inhibitor, single point] | –
20 | O=C(N/N=C/c1ccc[nH]1)c1cc2ccccc2cc1O | inconclusive [inhibitor, single point] | –
21 | CC1(C)Cc2cccc(OCC(=O)N3CCN(S(=O)(=O)c4ccccc4F)CC3)c2O1 | – | inactive: -4.77%
22 | COc1cc(OC)cc(C(=O)NC(=S)Nc2ccc(N3CCCC3)cc2)c1 | inconclusive [inhibitor, single point] | –
23 | CCCS(=O)(=O)c1ncc(Cl)c(C(=O)Nc2ccc(S(=O)(=O)Nc3ncccn3)cc2)n1 | inconclusive [inhibitor, single point] | –
24 | COC(=O)CCCc1nc2ccccc2s1 | inconclusive [inhibitor, full curve, poor fit] | –
25 | O=C(COc1ccccc1Cl)NCCc1ccc2c(c1)OCCO2 | inconclusive [activator, single point] | –
26 | N#C/C(=C\c1cccc([N+](=O)[O-])c1)c1nnc2n1CCCCC2 | – | inactive: -12.2%

Row | Compound | Potency | activity, negative = inhibition
27 | CC(C)(C)c1ccc(OCC(O)CN2CCCC2)cc1 (stereo unspecified) | inconclusive [activator, full curve, poor fit] | –
28 | CC(/C=N/NC(=O)c1nnn(-c2nonc2N)c1CN1CCCCC1)=C\c1ccccc1 | inconclusive [inhibitor, single point] | –
29 | C=CCn1cc(C(=O)NCCCN(CC)CC)c(=O)c2cc(S(=O)(=O)N3CCC(C)CC3)ccc21 | – | inactive: 4.23%
30 | CCc1ccc2c(c1)N(C[C@H](C)CN(C)C)c1ccccc1S2 | – | inactive: -10.7%
31 | Cc1ccccc1OCC(=O)Nc1ccc2c(c1)Cc1ccccc1-2 | inconclusive [inhibitor, single point] | –
32 | COc1cccc2c(=O)cc(C)n(CC(=O)Nc3cccc(C)c3)c12 | active: 11.2 µM | –
33 | CCCC(=O)Nc1ccc(C(=O)N/N=C/c2ccc[nH]2)cc1 | inconclusive [inhibitor, single point] | –
34 | Cc1ccc(NC(=O)CSc2n[nH]c(-c3ccco3)n2)cc1 | – | inactive: 26.6%
35 | Cc1ccc(S(=O)(=O)NNC2CC(=O)N(c3ccc(Br)cc3)C2=O)cc1 (stereo unspecified) | – | inactive: -0.674% [at 10 µM]
36 | S=C(Nc1ccccc1Cl)N1CCN(c2ccccn2)CC1 | – | inactive: -1.91%
37 | COc1ccc(C(=O)COc2ccccc2C#N)cc1 | – | inactive: -6.34%
38 | N=c1c(S(=O)(=O)c2ccccc2)cc2c(=O)n3ccccc3nc2n1Cc1ccco1 | inconclusive [inhibitor, single point] | –
39 | Cc1cc(C)cc(SCc2noc(C(=O)NCCCN3CCOCC3)c2C(=O)NCCCN2CCOCC2)c1 | – | inactive: 7.1%
40 | Cc1n[nH]c(C)c1CCOc1ccc(C(C)C)cc1 | inconclusive [inhibitor, single point] | –
41 | c1ccc(CCN2CN=C(Nc3nc4ccccc4o3)NC2)cc1 | inconclusive [inhibitor, single point] | –
42 | O=C(/C=C\c1ccccc1)Oc1cccc2cccnc12 | active: 3.16 µM | –
43 | CC(C)(C)n1nnnc1C(c1ccc(C(F)(F)F)cc1)N(Cc1ccc(F)cc1)Cc1ccco1 (stereo unspecified) | inconclusive [inhibitor, single point] | –
44 | Cc1cc(NC(=O)/C=C/c2cccc(F)c2)n(-c2nc3ccccc3[nH]2)n1 | active: 2.82 µM | –
45 | CCC(=O)N1CCN(c2nc(-c3ccc(Cl)cc3)cs2)CC1 | inconclusive [inhibitor, partial curve] | –
46 | O=C(CCc1ccccc1)N1CCCC(Nc2ccc(F)cc2)C1 (stereo unspecified) | – | inactive: 11.4%
47 | COc1cccc(C(=O)/C=C/Nc2cc(C)ccc2O)c1 | inconclusive [inhibitor, single point] | –
48 | COc1ccc(C(=O)NCC(C)(C)SCc2c(C)cc(C)cc2C)cc1 | inconclusive [inhibitor, partial curve, poor fit] | –
49 | COc1ccc(N(C)S(=O)(=O)c2cccc(C(=O)NCC3CCCO3)c2)cc1 (stereo unspecified) | – | inactive: 3.87%
50 | Cc1ccc(C(=O)Nc2ncn[nH]2)cc1 | active: 12.6 µM | –
51 | NNC(=O)c1nn(-c2ccc(Cl)cc2)ccc1=O | inconclusive [inhibitor, partial curve] | –
52 | O=C(N/N=C/c1ccc[nH]1)c1cccc([N+](=O)[O-])c1 | active: 10 µM | –

Row | Compound | Potency | activity, negative = inhibition
53 | CCN(CC)CCN(C(=O)c1cc2ccccc2cc1OC)c1nc2ccc(OC)cc2s1 | inconclusive [inhibitor, partial curve] | –
54 | CN(C)S(=O)(=O)c1ccc(NC(=O)c2ccncc2)cc1 | – | inactive: -15.6%
55 | Nc1nc2ccc(OC(F)(F)F)cc2s1 | inconclusive [activator, partial curve] | –
56 | CCOC(=O)C(CC)n1nc(C)n2c(cc3occc32)c1=O (stereo unspecified) | – | inactive: -5.68%
57 | COc1ccc(-c2cn3c4c(sc3n2)CCCC4)cc1 | active: 10 µM | –
58 | O=C(C1CCCN(S(=O)(=O)Cc2ccccc2)C1)N1CCc2ccccc21 (stereo unspecified) | – | inactive: 8.36%
59 | COc1cc(/C=N/Nc2snc(SC)c2C#N)cc(OC)c1OC | inconclusive [inhibitor, single point] | –
60 | COc1ccc(C(=O)/C(C#N)=N/Nc2ccccc2[N+](=O)[O-])cc1 | inconclusive [inhibitor, single point] | –
61 | COc1ccc(N(C)C(=O)c2cc3c(Cl)nc4ccccc4c3s2)cc1 | – | inactive: 3.45%
62 | O=C(O)C1CCCCC1C(=O)Nc1ccccc1Nc1ccccc1 (stereo unspecified) | – | inactive: 0.845%
63 | Cc1ccccc1Nc1nc(N)nc(CSCC(=O)Nc2cccc(Br)c2)n1 | – | inactive: -25.6%
64 | Cc1ccn2c(=O)c(C(=O)NCCC3=CCCCC3)c(O)nc2c1 | – | inactive: 5.55%
65 | NC(=O)c1ccc(N2CCN(S(=O)(=O)c3ccccc3)CC2)c([N+](=O)[O-])c1 | inconclusive [inhibitor, single point] | –
66 | CCn1c(SCC(=O)Nc2nc3ccc(C)cc3s2)nc2c(c1=O)SC(C)C2 (stereo unspecified) | – | inactive: 0.879%
67 | N#Cc1c(NC(=O)c2cnccn2)sc2c1CCCC2 | inconclusive [inhibitor, single point] | –
68 | CCCc1nc([N+](=O)[O-])c(S(=O)(=O)c2ccccc2)n1CC(C)C | inconclusive [inhibitor, single point] | –
69 | CCCc1ccc2oc(C(=O)N(Cc3nccn3C)C(C)C)c(C)c2c1 | – | inactive: -2.95%
70 | Cc1ccc(NC(=O)O/N=C/c2ccc(F)cc2)cc1 | – | inactive: -3.58%
71 | COc1ccc(N(CC(=O)Nc2ccccc2OC)S(=O)(=O)c2ccc(NC(C)=O)cc2)cc1 | – | inactive: 0.244%
72 | CN(CC(=O)Nc1ccc2c(c1)OCCO2)S(=O)(=O)c1ccc(F)cc1 | inconclusive [activator, single point] | –
73 | CN(C)c1cccc(C(=O)N/N=C/c2ccccc2F)c1 | inconclusive [inhibitor, partial curve] | –
74 | CCOC(=O)N1CCN(c2cc(C)c([N+](=O)[O-])cc2F)CC1 | inconclusive [inhibitor, single point] | –
75 | Cc1cc(C)c2c(NC(=S)NC(=O)c3ccccc3)n[nH]c2n1 | inconclusive [inhibitor, single point] | –
76 | Cc1ccc(-c2nc3c(Cl)cc(Cl)cc3c(=O)n2O)cc1 | inconclusive [inhibitor, single point] | –
